PMC4336329 (PLoS ONE, 2015)
The whole screen tested about 310,000 compounds, of which about 2,200 (0.71%) showed an effect of 50% or more. The effect is printed as a negative number. The list shows a part of the results.

biological target: human ether-à-go-go-related gene (hERG) potassium channel (human, UniProt Q12809); experiment: primary screen, population patch clamp on CHO cells stably expressing hERG
Sequence (Q12809 whole entry, looked up): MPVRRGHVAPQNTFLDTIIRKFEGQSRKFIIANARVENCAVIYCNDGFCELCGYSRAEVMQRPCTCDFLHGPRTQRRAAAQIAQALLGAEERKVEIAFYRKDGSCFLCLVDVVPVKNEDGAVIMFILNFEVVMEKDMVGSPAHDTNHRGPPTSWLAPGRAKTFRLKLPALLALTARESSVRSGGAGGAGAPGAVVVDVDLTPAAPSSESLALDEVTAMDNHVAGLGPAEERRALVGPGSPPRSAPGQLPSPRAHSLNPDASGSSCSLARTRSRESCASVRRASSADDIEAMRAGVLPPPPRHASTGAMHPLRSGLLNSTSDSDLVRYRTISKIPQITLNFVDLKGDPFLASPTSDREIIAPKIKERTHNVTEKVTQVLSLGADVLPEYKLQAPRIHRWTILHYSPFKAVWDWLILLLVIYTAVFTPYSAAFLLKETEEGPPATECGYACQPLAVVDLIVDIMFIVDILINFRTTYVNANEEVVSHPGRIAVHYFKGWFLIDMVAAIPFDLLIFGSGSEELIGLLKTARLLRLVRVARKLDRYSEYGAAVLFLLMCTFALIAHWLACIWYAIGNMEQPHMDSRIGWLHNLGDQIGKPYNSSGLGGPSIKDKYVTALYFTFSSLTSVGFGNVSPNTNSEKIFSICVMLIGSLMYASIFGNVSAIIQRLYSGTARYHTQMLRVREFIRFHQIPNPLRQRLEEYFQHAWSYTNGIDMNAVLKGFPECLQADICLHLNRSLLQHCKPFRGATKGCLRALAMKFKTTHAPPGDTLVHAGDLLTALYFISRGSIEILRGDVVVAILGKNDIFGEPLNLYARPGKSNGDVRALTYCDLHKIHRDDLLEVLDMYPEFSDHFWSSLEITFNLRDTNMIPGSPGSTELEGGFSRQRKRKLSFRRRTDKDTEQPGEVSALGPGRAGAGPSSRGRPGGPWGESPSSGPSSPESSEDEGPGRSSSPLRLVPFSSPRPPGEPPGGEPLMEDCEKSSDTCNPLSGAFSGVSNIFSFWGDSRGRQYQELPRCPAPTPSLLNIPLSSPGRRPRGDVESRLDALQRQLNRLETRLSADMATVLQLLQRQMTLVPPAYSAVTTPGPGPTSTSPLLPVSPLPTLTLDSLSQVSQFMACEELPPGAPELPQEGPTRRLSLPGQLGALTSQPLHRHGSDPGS

Compound	hERG current change (%, negative = inhibition) at 1uM [%]
O=C(CSc1nnc(CNc2ccc(F)cc2)n1Cc1ccco1)NC1CC1	8.16
Nc1nc(-c2ccco2)cs1	12.4
Cn1c(CCNS(=O)(=O)c2ccccc2)nc2cc([N+](=O)[O-])ccc21	8.07
C[C@H](NC(=O)c1ccccc1Cl)C(=O)OCCOc1ccc(Cl)cc1	6.73
O=C(c1ccc(N2CCN(C(=O)c3ccc(F)c(F)c3)CC2)cc1)c1cccc(F)c1	-13.2
Cc1ccc2oc(/N=C(\N)NC(=O)C3CC3)nc2c1	14.7
CC[n+]1c(P(=O)([O-])c2ccccc2)[nH]c2ccccc21	-11.7
O=C(Cn1ncn2c(cc3ccccc32)c1=O)NCCc1cccs1	3.23
CCN1CCN(c2ccc(S(=O)(=O)N3CCOCC3)cc2NC(=O)CCC(C)C)CC1	-8.46
CNC(=O)Nc1ccc(C(=O)N/N=C\C23CC[C@@H](O)CC2(O)CC[C@@H]2[C@@H]3CCC3(C)C(C4=CC(=O)OC4)CCC23O)cc1 (some centres unmarked)	5.23
O=C(Nc1cccc(F)c1)c1cccnc1	8.69
Cc1cc(=O)oc2cc(OCC(=O)Nc3ccc(CN4CCOCC4)cc3)ccc12	12.5
COc1ccc(NC(=O)CSc2nccn2-c2cccc(OC)c2)cc1	10.3
Cc1ccc(S(=O)(=O)Nc2nc3ccccc3s2)cc1[N+](=O)[O-]	1.5
N/C(=N\OC(=O)CCC1CCCCC1)c1cccnc1	5.19
COc1ccc(OC)c(N(CC(=O)NCc2cccnc2)S(C)(=O)=O)c1	7.2
Cc1cc(C)c(NC(=O)COC(=O)CSc2ccc(Br)cc2C)c(C)c1	3.66
Cc1c(NC(=O)c2cc3nc(-c4ccc(Br)cc4)cc(C(F)(F)F)n3n2)c(=O)n(-c2ccccc2)n1C	-3.99
O=C(CC(n1cncn1)C(Cl)(Cl)Cl)c1ccc([N+](=O)[O-])cc1 (centres unmarked)	-14.3
COc1ccc(NC(=O)C(C)NS(=O)(=O)c2ccc(NC(C)=O)cc2)cc1Cl (centres unmarked)	3.36
Cc1ccc2cc(CN(Cc3ccco3)S(=O)(=O)c3c(C)ccc4nsnc34)c(=O)[nH]c2c1	9.99
CCN(CC)C(=S)SCC(=O)c1ccc(F)cc1	8.42
Nc1nonc1-n1nnc(C(=O)N/N=C/c2ccc(OCc3ccccc3)cc2)c1CNc1ccccc1	10.1

Compound	hERG current change (%, negative = inhibition) at 1uM [%]
O=C(NCc1ccc(F)cc1)c1nc(-c2cccs2)no1	6.56
Cn1cc(CN(Cc2ccccc2)C[C@@H]2CCC(=O)N2)c(-c2ccccc2F)n1	0.0302
O=c1[nH]cc(C(F)(F)F)cc1NS(=O)(=O)c1ccccc1[N+](=O)[O-]	-0.0558
CCC(C)C(=O)Nc1nccs1 (centres unmarked)	16.4
O=C(CCCCC(=O)NCc1cccs1)NCc1cccs1	11.4
C=CCn1c(SCC(=O)NC(N)=O)nnc1-c1cc2c(s1)CCC(CC)C2 (centres unmarked)	4.36
COc1cccc(/C=C/C(=O)Nc2ccc3c(c2)OCCO3)c1	8.79
O=S(=O)(NCCCCCNS(=O)(=O)c1ccc(F)cc1)c1ccc(F)cc1	8.17
CC1(C)CC2(C)OCCN2C(=S)N1 (centres unmarked)	5.78
CCOc1ccc(-c2noc(CCCC(=O)NC3CCCC3)n2)cc1OC	18.4
CCn1c(SCC(=O)N2CCCCC2C)nc2ccsc2c1=O (centres unmarked)	4.89
COc1ccc(Nc2c3c(nc4ccc(C)cc24)CCC3)cc1.Cl	-26.3
CCOc1ccc(C2=NNC(c3cccs3)=Nc3ccc(OCC)cc32)cc1	21.9
Cc1nc(SCC(=O)Nc2ccc(C)c(F)c2)c2oc3ccccc3c2n1	5.17
C=CCn1c(=NC(=O)c2cccc(N3C(=O)CCC3=O)c2)sc2cccc(OC)c21	3.05
Cl.O=C(COc1ccc(F)cc1)NCCN1CCCC1	6.62
CCCN1CCC(=O)N([C@H](CSc2ccc(Br)cc2)c2ccccc2)CC1	-17.5
Cl.N=c1n(Cc2ccc(Cl)cc2)c2ccccc2n1CC(O)c1ccco1 (centres unmarked)	-39.2
CC1CCN(Cc2cc(=O)oc3cc4c(cc23)CCCC4)CC1	16.4
COc1ccc(-c2nc3ncccc3n2O)cc1	14
O=C(CNC(=O)c1sc2ccccc2c1Cl)Nc1ccccc1F	4.22
COc1ccc(N=C(N)N=C(N)N)c(OC)c1	15.3
COCCN(C(=O)COC(=O)c1ccc(C)o1)c1c(N)n(Cc2ccccc2)c(=O)[nH]c1=O	19.2

Compound	hERG current change (%, negative = inhibition) at 1uM [%]
Cc1ccc(C(C(=O)NC2CCCCC2)N2CCCC2)cc1 (centres unmarked)	0.227
O=C(c1cc(-c2cccc(O)c2)on1)N1CCc2ccccc2C1	-3.92
CN(C)c1ccc(Nc2nc(N)c3ccccc3n2)cc1.Cl	-0.952
COc1ccccc1NC(=O)C1CCN(C(=O)C2CC(=O)N(c3ccc(C)cc3)C2)CC1 (centres unmarked)	10.9
COc1ccc(CC(=O)N2CCC(n3nccc3NC(=O)C3CC3)CC2)cc1	13.3
C(=N\Nc1nc2ccccc2[nH]1)/c1cccc2cccnc12	7.94
O=C(NCc1cccnc1)NC1(C(F)(F)F)Oc2ccccc2O1	-5.46
O=C1CC(=O)CC(c2ccccc2)C1	9.21
CCN(C(=O)c1cn(C)c(=O)c2ccccc12)c1ccccc1F	3.64
COC(=O)c1ccc(CN2CCN(CC=C(C)C)C(CCO)C2)cc1 (centres unmarked)	2.91
COc1cccc(N2CCN(c3ccc4nnc(CCC(=O)Nc5ccccc5OC)n4n3)CC2)c1	-1.06
O=C(NCc1cccc(C(F)(F)F)c1)C1CC(c2c(Cl)cccc2Cl)=NO1 (centres unmarked)	0.493
COc1ccc(CNC(=O)/C=C/C(=O)O)cc1OC	-5.68
CCOC(=O)CSc1n[nH]c(NC(=O)c2ccccc2)n1	8.7
O=C(COC(=O)c1ccccc1Br)NC1CCCC1	26.6
COc1ccc(-c2nn(CCC#N)cc2C(=O)NCc2ccccc2)cc1[N+](=O)[O-]	-25
Cn1c(=O)c([N+](=O)[O-])c(N2CCN(Cc3ccc4c(c3)OCO4)CC2)c2ccccc21	12.7
COc1ccc(C(=O)NCCS(=O)(=O)NCC2CCCO2)cc1 (centres unmarked)	16.1
Cc1cc(NC(=O)CSc2nc(C(C)C)nc3sc4c(c23)CCCC4)no1	15.1
O=C(CCCN1C(=O)c2ccccc2C1=O)N1CCc2ccccc2C1	-3.63
CCOc1ccccc1N1CCN(C(=O)CCCN2C(=O)c3cccc4cccc(c34)C2=O)CC1	2.15
O=C1c2ccccc2NC2(CCCCC2)N1N=C1CCCCC1	13.6
COc1ccc(S(=O)(=O)N2CCC(C(=O)NC3CC3)CC2)cc1OC	-9.17

Compound	hERG current change (%, negative = inhibition) at 1uM [%]
CCC(C)C(NC(=O)[C@@H](NC(=O)c1ccccc1F)C(C)C)C(=O)OC (some centres unmarked)	10.6
N#Cc1c(/N=C/c2ccccc2)oc(-c2ccccc2)c1-c1ccccc1	16.5
Cn1c(SCC(=O)Nc2ccc(Cl)cn2)nnc1C1CC1	6.99
CCOC(=O)c1ccc(Nc2ncnc3ccccc23)cc1.Cl	8.61
Cc1ccc(CN2CCN(c3ccccc3Cl)CC2)o1	3.56
CCc1ccc(NC(=O)NCC2CCN(Cc3cccc(Cl)c3)CC2)cc1	-36.7
CCOCC(=O)NC1CCSC1=O (centres unmarked)	22.7
O=C(c1ccc(CNS(=O)(=O)c2cccc(C(F)(F)F)c2)cc1)N1CCOCC1	0.595
Cc1occc1C(=O)NNC(=O)c1ccc(S(=O)(=O)N(C)C)cc1	6.96
Cc1ccc(-c2nc3cccnc3o2)cc1NC(=O)COc1ccc(Cl)cc1C	13.4
Cn1c(=O)n(C)c2cc(NC(=O)Cc3ccccc3[N+](=O)[O-])ccc21	11.8
O=C(O)C(=O)O.O=C(c1cccs1)N1CCN(CCCc2ccccc2)CC1	-47.1
CCN1C(=O)c2ccccc2S(=O)c2ccc(C(=O)NCc3ccccn3)cc21 (centres unmarked)	8.38
O=C(NC(=S)Nc1ccc2c(c1)OCCO2)c1cccc(Br)c1	3.4
COc1ccc(/C=C/c2c([N+](=O)[O-])c(=O)n(C)c(=O)n2C)c(OC)c1OC	5.83
O=C(/C=C/Nc1cccc(F)c1)c1ccco1	9.64
Cc1nc(N2CCCCC2)sc1C(=O)c1cccc([N+](=O)[O-])c1	7.77
Clc1ccccc1-c1nc(-c2ccccc2)n[nH]1	-0.0945
Cc1ccc(/C=C2/N=C(c3ccccc3)NNC2=O)cc1	3.02
CCOC(=O)N1CCN(C(=O)c2cccc(S(=O)(=O)Nc3ccccc3Cl)c2)CC1	30.7
